# Whole data set: some 33,000 sequences, median “E-score (-0.5 to 0.5)” near -0.032, cut for the highest 2% near 0.36. This is one part of the list.
# Molecular target: T1, Sko1 (UniProt Q02100)
# T1 sequence: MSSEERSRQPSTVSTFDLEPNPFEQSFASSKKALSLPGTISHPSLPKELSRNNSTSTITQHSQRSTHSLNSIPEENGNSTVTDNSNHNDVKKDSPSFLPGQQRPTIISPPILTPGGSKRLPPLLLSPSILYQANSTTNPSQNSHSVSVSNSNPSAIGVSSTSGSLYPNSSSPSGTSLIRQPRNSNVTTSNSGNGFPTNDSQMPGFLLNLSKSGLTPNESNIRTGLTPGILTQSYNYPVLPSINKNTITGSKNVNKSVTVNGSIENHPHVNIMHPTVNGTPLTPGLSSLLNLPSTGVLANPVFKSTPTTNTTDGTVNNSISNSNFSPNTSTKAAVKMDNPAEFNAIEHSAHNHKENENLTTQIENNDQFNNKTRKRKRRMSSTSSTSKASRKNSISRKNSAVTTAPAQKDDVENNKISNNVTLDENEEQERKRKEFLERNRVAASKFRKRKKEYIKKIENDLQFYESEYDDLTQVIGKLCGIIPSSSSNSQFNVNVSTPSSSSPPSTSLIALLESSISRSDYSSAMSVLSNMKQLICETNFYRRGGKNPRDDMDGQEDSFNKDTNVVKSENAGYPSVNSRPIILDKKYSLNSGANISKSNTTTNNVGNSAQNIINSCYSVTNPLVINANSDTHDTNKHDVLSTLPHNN
# Assay: PBM E-score (8-mer binding enrichment) (E-score (-0.5 to 0.5)); higher = stronger / more preferred TF binding; most listed sequences are background and not binding sites
# Conditions: protein concentration: 200 nM; construct: GST-full length
# How it was run: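 Universal all-10-mer Agilent arrays, double-stranded by primer extension on fresh or once-stripped slides, were probed with about 100-200 nM GST-tagged yeast transcription factors made by PURExpress. Fluorescent anti-GST detected bound protein, and masliner normalised the scans. E-scores from the Universal PBM Analysis Suite were given to each ungapped eight-base word pooled with its reverse complement.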
row,Sequence,PBM E-score
1,AGACCAGC,-0.405
2,AGAGATCA,-0.0141
3,CTGTAATC,-0.174
4,ATCGAAAT,0.0953
5,ACGGAACT,0.0989
6,CAAGTTCG,-0.0747
7,ATCGACTA,0.0892
8,CAAGATGA,-0.0617
9,TAACGGGA,-0.0567
10,ACCCAAGG,-0.186
11,TATCAGCA,0.0232
12,GCTCCGAC,-0.252
13,ATTCTGCA,0.175
14,ATCTGGGC,-0.286
15,ATGCGCCA,-0.00554
16,AGACGTTC,0.125
17,ACCTAAAG,-0.0362
18,CCAAACCG,-0.149
19,GTCAAGAC,-0.0149
20,GACCGCAC,-0.214
21,TGGCACCA,-0.236
22,CTTATCGC,-0.124
23,ACGGTTCC,-0.193
24,ATTGTGGG,-0.197

row,Sequence,PBM E-score
1,GCAGTCCA,-0.187
2,AGCGCGAT,-0.0488
3,AAGGTCTG,-0.134
4,ATTTCGCA,0.2
5,CCAATTCG,0.0345
6,AGTAAGCC,-0.266
7,CGTAAGTA,0.354
8,AGATAAGC,0.0674
9,CTCACATC,-0.0468
10,CCCAAAGG,-0.114
11,CAACCAAA,0.00349
12,AGGGAGAA,-0.143
13,ACAAGTAG,-0.189
14,AACTCTAC,-0.0391
15,CCACTACA,0.0711
16,CCTCTTAA,-0.0534
17,CATTGCTA,0.2
18,AAATGCGC,0.13
19,GTGCAATA,0.122
20,AACCGTTA,-1e-05
21,GACCCATA,0.043
22,GATAATGA,0.252
23,AGGTGTCC,-0.2
24,AAGAAAGT,0.0785

row,Sequence,PBM E-score
1,CATCGTAA,0.317
2,ACTCTATA,0.0196
3,GGTCATCA,0.207
4,ACTCACGC,0.14
5,CCTGAGAC,-0.216
6,ACGATCGG,-0.0844
7,CGCCGTTC,-0.264
8,AGGGACCC,-0.354
9,CATATATA,0.25
10,GAGCTACA,-0.23
11,AGTAAAGC,0.195
12,TCCTTTCA,0.127
13,AACAGGAC,0.101
14,AACCGCCG,-0.0941
15,AGACAATG,0.08
16,ACCGTGGC,-0.252
17,ATGATGAC,0.327
18,AATCAAAG,-0.0996
19,CAGGGCTA,-0.144
20,CTCAGCAA,0.0587
21,AACACATG,0.115
22,AATTAAAG,0.0213
23,AGTCTATA,0.0604
24,GACGGCGA,-0.134

row,Sequence,PBM E-score
1,ACATTCCG,-0.138
2,AACGAAGT,0.0161
3,AAGCGAAA,-0.0358
4,AGAACGCG,-0.0454
5,CCAGGAAA,-0.00466
6,CGCGCGAA,0.0432
7,ACCATCTG,-0.3
8,CCTTCCTA,-0.27
9,CCACTGTC,-0.185
10,AGTTAAAG,0.0571
11,TGCTAGCA,0.123
12,GCACACTA,-0.00368
13,CGCTTCTA,-0.0149
14,AAGTGCGA,-0.0462
15,GCGTTTAA,0.146
16,CCGCCTTC,-0.409
17,CCCGAAGG,-0.192
18,AACTGGAA,-0.104
19,CGCCTTCA,-0.267
20,CCGCTTGC,-0.232
21,CATCAATC,0.116
22,GAGGAACC,-0.252
